“And” between values parts separate entries of the source, which are not always exact repeats. Equal entries are not always repeated. Hit rate of the full screen: of about 420,000 compounds, about 50,000 (12%) were called active. The shares of active, inactive and inconclusive entries below differ from those in the screen. The call rests on the fitted dose curve; in most records, active means well fitted inhibition curve with a large enough effect; inconclusive means small, poorly fitted or top-dose-only effect; inactive means flat fitted curve, though single readings scatter. No potency is given beside an inconclusive call; the fits are too rough.
Assay: qHTS for Inhibitors of human tyrosyl-DNA phosphodiesterase 1 (TDP1): qHTS in cells in presence of CPT; further: nearly all actives have a fitted effect of over 55% in size
Details: chicken DT40 Tdp1-/-;hTDP1 cells + 20 nM CPT, ATP luminescence, 48 h; activity change, negative = growth inhibition: at 46.2 µM (top of the series) unless noted
In short: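 Chicken DT40 Tdp1-/- cells complemented with human TDP1, 400 cells/well, exposed to compounds plus 20 nM camptothecin for at least 48 h at 37 C; viability read as ATP content by CellTiter-Glo luminescence.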
On the % scale 0 is the no-effect control and ±100 the full control effect; potency means the concentration at half of the fitted maximal effect; tags describe the fitted curve by direction and shape.

SMILES	Potency	activity change, negative = growth inhibition
CCC(NC(=O)CCc1c(C)c2cc3c(C)c(C)oc3cc2oc1=O)C(=O)N[C@@H](Cc1ccccc1)C(=O)O (stereo not given in full)	inconclusive [inhibitor, single point]	–
O=C(Nc1ccc2c(c1)OCCO2)c1ccco1	inconclusive [inhibitor, partial curve, poor fit]	–
COc1ccc(CN2CCC(N3CC(C)OC(C)C3)CC2)c(OC)c1OC (stereo not given)	inactive	–
O=C(Nc1ccc(F)c(Cl)c1)C1Cc2c(-c3ccccc3Oc3ccccc3)ccnc2O1 (stereo not given)	inconclusive [inhibitor, single point]	–
Cc1ccc(NC(=O)N2CCC(c3nc4c(nnn4Cc4cccc(Cl)c4)c(=O)[nH]3)CC2)cc1	inconclusive [inhibitor, single point]	–
COc1cccc(N(C(=O)CNC(=O)c2ccco2)C(C(=O)NC2CCCCC2)c2ccncc2)c1 (stereo not given)	inactive	–
CCN(CC(=O)NCC1CCCO1)S(=O)(=O)c1ccc2ccccc2c1 (stereo not given)	inactive	–
c1ccc(CCOn2ccnc2)cc1	inactive	–
CCOC(=O)c1c(-c2ccccc2)oc2ccc(OCC(=O)O)cc12	inactive	–
C=CCNc1nc(N2CCCCC2)c(C#N)c2c1CN(Cc1ccccc1)CC2	active: 23.1 µM	–
COC(=O)c1ccc(CN2CCCC(C(=O)Nc3cccc(-n4cccn4)c3)C2)cc1 (stereo not given)	inconclusive [inhibitor, single point]	–
CCn1c(=O)c2cc(C(=O)N(C)CC(OC)OC)sc2c2ccccc21	inconclusive [inhibitor, single point]	–
COc1cccc(C(O)c2nc(-c3cccc(C(C)C)c3)cs2)c1 (stereo not given)	inconclusive [inhibitor, partial curve]	–
Cc1cc2c(c(=O)n1Cc1cccnc1)C(Cc1ccccc1)C(C#N)=C(N)O2 (stereo not given)	inactive	–
Cn1c(SCC(=O)N/N=C/c2cc([N+](=O)[O-])ccc2O)nnc1-c1ccccc1	inconclusive [inhibitor, single point]	–
CCOC(=O)N1CCC(N2C(=O)c3ccccc3C2Nc2ccccc2)CC1 (stereo not given)	inconclusive [inhibitor, single point]	–
COc1ccc2c(C)c(CCC(=O)NCCc3ccccc3OC)c(=O)oc2c1	inconclusive [inhibitor, single point]	–
COC(=O)c1ccc(OCC(O)CN2C(=O)c3ccccc3C2=O)cc1 (stereo not given)	inactive	–
CCc1ccccc1NS(=O)(=O)c1ccc(OC)c2ncccc12	active: 10.3 µM and active: 18.4 µM	–
COc1ccc(NCc2cc3cc4c(cc3n(CC(=O)Nc3ccc(F)cc3F)c2=O)OCO4)cc1	active: 6.51 µM	–
CC1CC(C)CN(S(=O)(=O)c2ccc(C(=O)Nc3nnc(-c4cccs4)o3)cc2)C1 (stereo not given)	active: 6.31 µM	–
Cc1sc2nc(CN3CCCC3)nc(N3CCN(S(=O)(=O)c4cccs4)CC3)c2c1C	inconclusive [inhibitor, single point]	–
Cc1ccccc1NCc1ccc([N+](=O)[O-])s1	inactive	–
Cc1ccc(N2C(=O)N(CC(=O)Nc3ccccc3C(F)(F)F)C(=O)C2C)cc1 (stereo not given)	inactive	–

SMILES	Potency	activity change, negative = growth inhibition
COC(=O)CCSc1nc2sc3c(c2c(=O)n1Cc1ccccc1)CCC(C(C)(C)C)C3 (stereo not given)	inconclusive [inhibitor, single point]	–
Cc1ccc(NC(=O)c2cccc(NC(=O)/C=C/c3ccco3)c2)cc1C	inconclusive [inhibitor, single point]	–
CCOC(=O)/C=C/C(=O)NNC(=O)c1ccccc1Cl	inconclusive [inhibitor, single point]	–
CC1=C(C(=O)OCc2ccc(C)cc2)C(c2ccc(O)c([N+](=O)[O-])c2)NC(=O)N1 (stereo not given)	inactive	–
CCc1nc2c(OCCc3cccc(OC)c3)cccn2c1N(C=O)Cc1ccc(OC)cc1	active: 18.4 µM	–
CNC(=S)NNC(=O)c1c(C)nc2cc(C)ccn12	inactive	–
COc1ccc(N(CC(=O)Nc2ccc(S(=O)(=O)N3CCOCC3)cc2)S(C)(=O)=O)cc1OC	–	inconclusive: -30.3% [inhibitor]
OC1CCCC1	inactive	–
COc1c(C)cc(C(=O)C2CCCN(Cc3cccc4nccnc34)C2)cc1C (stereo not given)	inconclusive [inhibitor, single point]	–
O=C(CCN1CCN(C(c2ccccc2)c2ccccc2)CC1)N/N=C/c1ccc(O)cc1O	active: 6.51 µM	–
CCOC(=O)c1sc(NC(=O)CSc2nnnn2-c2ccc(C)cc2)c(C(=O)OCC)c1C	inconclusive [inhibitor, partial curve]	–
COCC(=O)N1CCC2(CC1)CN(c1ccccn1)C2	inactive	–
O=C(Nc1ccc(Cl)cc1)C1CCCN(S(=O)(=O)c2ccc3[nH]c(=O)ccc3c2)C1 (stereo not given)	inconclusive [inhibitor, partial curve, poor fit]	–
COc1ccc(-c2cc3nc(NCCCN(C)C)n(C)c(=O)c3s2)c(C)c1	inconclusive [inhibitor, single point]	–
CCOc1ccc(C2C(C(=O)c3cccs3)=C(O)C(=O)N2CCCn2ccnc2)cc1 (stereo not given)	inactive	–
CCCSc1nnc(-c2c[nH]c3ccccc23)n1C	inconclusive [inhibitor, single point]	–
COc1ccc(COc2ccccc2C(=O)NCc2ccccc2)cc1F	inconclusive [inhibitor, single point]	–
Cc1ccc(Oc2c(C(F)(F)F)oc3c(CN4CCCCC4)c(O)ccc3c2=O)cc1	inconclusive [inhibitor, single point]	–
Cn1cnc([N+](=O)[O-])c1SCCO	inconclusive [inhibitor, single point]	–
CCC(=O)N1CCc2cc(S(=O)(=O)NCCC(=O)N3CCN(c4cccc(OC)c4)CC3)ccc21	inconclusive [inhibitor, single point]	–
CC(C)CNc1ncnc2c1ncn2[C@H]1CN(Cc2ccc(-c3ccccc3)cc2)C[C@@H](CO)O1	active: 5.17 µM	–
Nc1nc(SCC(=O)Nc2cccc(F)c2)n[nH]1	inactive	–
Cc1cccc(N2CCN(C(=O)CCN3C(=S)NC(C)(C)CC3C)CC2)c1C (stereo not given)	inconclusive [inhibitor, single point]	–
COc1cc(OC)c2c(=O)c(-c3ccccc3)coc2c1	inconclusive [inhibitor, single point]	–

SMILES	Potency	activity change, negative = growth inhibition
CN1CCN(c2ccnc(-c3ccoc3)n2)CC1	inconclusive [inhibitor, single point]	–
COc1cc(NS(=O)(=O)c2ccc(C)cc2)ccc1-n1cnnn1	inconclusive [inhibitor, single point]	–
O=C(CN1C(=O)NC(c2ccccc2)(c2ccccc2)C1=O)NCc1ccc(F)cc1	inconclusive [inhibitor, single point]	–
COc1cccc(CNC(=O)C2CCCN(S(=O)(=O)c3ccc4c(ccn4C)c3)C2)c1 (stereo not given)	inconclusive [inhibitor, single point]	–
CCCC1=C(C(=O)OCC)C(c2c(C)nn(-c3ccccc3)c2Cl)C(C#N)=C(N)O1 (stereo not given)	inconclusive [inhibitor, partial curve]	–
CCOc1ncccc1C(=O)N1CCN(S(=O)(=O)c2cccs2)CC1	inactive	–
Cc1ccc(OCc2cc(C(=O)NCCn3cccn3)no2)cc1C	inconclusive [inhibitor, single point]	–
Cc1cc(C)nc(NS(=O)(=O)c2ccc(NC(=O)c3ccc(S(=O)(=O)N4CCOCC4)cc3)cc2)n1	inactive	–
COc1ccc(-c2cc(NC=O)c3ncc(-c4cccc(C(C)=O)c4)n3c2)cc1	inconclusive [inhibitor, single point]	–
CN1CCN(CCCNc2nc3ccccc3c3nc(-c4ccccc4)nn23)CC1	inconclusive [inhibitor, single point]	–
CCOc1ccc(/C=c2\sc3nc(-c4ccco4)nn3c2=O)cc1OCC	inactive	–
O=C(Nc1ccc(F)cc1)c1ccc(COc2ccccc2)cc1	inconclusive [inhibitor, single point]	–
CN(C)c1ccc(O)c2c1CC1CC3C(N(C)C)C(=O)C(C(N)=O)=C(O)[C@@]3(O)C(=O)C1=C2O (stereo not given in full)	active: 2.06 µM	–
CC1CN(CCOc2cccc(Oc3ccccc3)c2)CC(C)O1 (stereo not given)	inconclusive [inhibitor, single point]	–
CCc1ccccc1NS(=O)(=O)c1ccc2[nH]cc(C(=O)N3CCCCC3)c(=O)c2c1	inactive	–
CCn1c(=S)sc2c(=O)[nH]c(SCC(=O)Nc3cc(OC)ccc3OC)nc21	inactive	–
O=C(CC1N=C2c3ccccc3N=C(SCc3ccc(Cl)cc3)N2C1=O)NCc1ccco1 (stereo not given)	inconclusive [inhibitor, single point]	–
COc1cccc(C2CC(c3ccc(Cl)cc3Cl)Nc3nc(N)nn32)c1 (stereo not given)	inconclusive [inhibitor, partial curve]	–
COc1ccc(NC(=O)CC2C(=O)N(c3ccc(F)cc3)C(=O)N2Cc2cccnc2)cc1 (stereo not given)	inconclusive [inhibitor, single point]	–
Cn1c(=O)c2c(nc(NCC(O)CO)n2CCc2ccccc2)n(C)c1=O (stereo not given)	inactive	–
CC(C)c1c(C(=O)N/N=C/c2ccc(C(F)(F)F)cc2)nnn1-c1nonc1N	active: 14.6 µM	–
CC1CCc2c(sc3ncnc(SC(C)C(=O)NCC4CCCO4)c23)C1 (stereo not given)	active: 25.9 µM	–

Reference: PubChem BioAssay AID686979 (National Center for Advancing Translational Sciences (NCATS), 2013)
